Data reported in the supplement of paper PMC10338343.
± gives the standard deviation. The entries are a selection whose mix differs from that of the whole data set.

Test system: MIWI (PIWIL1) piRISC loaded with piRNA #1 (30 nt)
Experiment: pre-steady-state target cleavage rate (min^-1); MIWI and MILI are mouse PIWI proteins and EfPiwi is from a freshwater sponge; tags in brackets are library labels; higher = faster piRNA-guided slicing of the target
Conditions: guide: piRNA #1 5'p-UGAGGUAGUAGGUUGUAUAGUAUCCAGAGG; auxiliary factor: 500 nM mouse GTSF1
Method in brief: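 For Cleave-'n-Seq, a transcribed, DNA-blocked target RNA library […] met 1 nM active affinity-purified piRISC with one synthetic guide at 33 °C for 0–8 or 0–960 min in HEPES–potassium acetate buffer, with or without 500 nM GTSF1 partner protein. Uncleaved targets were sequenced and normalised to depth and weakly complementary targets, with three trials pooled and k3 capped at 0.0001 min^-1. A burst-and-steady-state fit supplied the pre-steady-state cleavage rate.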
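Also: 1 nM active piRISC with 0.1 nM target library at 33 °C single turnover.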

Row | Sequence | pre-steady-state target cleavage rate
1 | GCUCUGGAUACUAUACAACCCACUACCUCA | 0.84 ± 0.034
2 | GCUCUGGAUUCUUUACAACCUACUACCUCA | 0.448 ± 0.054
3 | CCUCUGGAUACUAAACAACCUACUACCUGA | 0.701 ± 0.11
4 | GGUGUGGAUACUAUACAACCUACUACCUGA | 0.419 ± 0.069
5 | GGUCUGGAUACUAUACAACCUUCUACCUGA | 0.169 ± 0.036
6 | GGAGAGGAUACCAUACAACCUACUACCUCA | 1.39 ± 0.062
7 | GGACUGGAUACAAUACAACCAACUACCUCA | 0.0933 ± 0.0097
8 | GGAGACCUUACUAAACAUCCUACUACCUCA | 0.3 ± 0.036
9 | CCUCUGGAUACUAUACAACCUUCUACCUGA | 0.275 ± 0.067
10 | GGAGACGAUACUAUACAACCUACUACACUCA | 0.855 ± 0.08
11 | GGAGACCAUUCUAUACAACGUACUACCUCA | 0.29 ± 0.033
12 | GCUCUGGAUACUAUAGCAACCUACUACCUCA | 1.22 ± 0.12
13 | GGAGAGGAUACUAUACAACCUGCUACCUCA | 0.754 ± 0.038
14 | GGAGACCUUACUAUACAACGUACUACCUGA | 0.186 ± 0.022
15 | GGAGACGAUACUAUACUACCUACUUCCUCA | 0.379 ± 0.037
16 | GGAGACGAUACUAUACAACCUACGACCUCA | 0.821 ± 0.063
17 | GGACUGGAUACUAUACAUCGUACUACCUCA | 0.4 ± 0.051
18 | GGAGUGGAUACUAUACAACCUAACUACCUCA | 0.0225 ± 0.004
19 | GGAGACCUAUCUAUACAACCUACUUGCUCA | 0.211 ± 0.027
20 | GGAGACCUAACUAUACAACCUACUAGCUCA | 0.509 ± 0.062
21 | GGAGACGAUACUAUACAACCCACUACCUCA | 0.669 ± 0.029
22 | GGAGACCUAACUAUACAUCCUACAACCUCA | 0.274 ± 0.069
23 | GGUCUGGAAACUAAACAACCUACUACCUCA | 1.67 ± 0.12
24 | GGAGUCGAUACUAUACAACCUUCUACCUCA | 0.424 ± 0.029
